In PMC4336329 (PLoS ONE, 2015):
In all, about 310,000 compounds went through this assay and about 14,000 (4.5%) showed an effect of 50% or more. The effect is printed as a negative number. This is one part of the list.

Molecular target: human ether-à-go-go-related gene (hERG) potassium channel (human, UniProt Q12809)
Assay: primary screen, population patch clamp on CHO cells stably expressing hERG
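Also: peak tail current of the secondary pulse compared with the same well before compound.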

Sequence of human ether-à-go-go-related gene (hERG) potassium channel (Q12809 whole entry, looked up): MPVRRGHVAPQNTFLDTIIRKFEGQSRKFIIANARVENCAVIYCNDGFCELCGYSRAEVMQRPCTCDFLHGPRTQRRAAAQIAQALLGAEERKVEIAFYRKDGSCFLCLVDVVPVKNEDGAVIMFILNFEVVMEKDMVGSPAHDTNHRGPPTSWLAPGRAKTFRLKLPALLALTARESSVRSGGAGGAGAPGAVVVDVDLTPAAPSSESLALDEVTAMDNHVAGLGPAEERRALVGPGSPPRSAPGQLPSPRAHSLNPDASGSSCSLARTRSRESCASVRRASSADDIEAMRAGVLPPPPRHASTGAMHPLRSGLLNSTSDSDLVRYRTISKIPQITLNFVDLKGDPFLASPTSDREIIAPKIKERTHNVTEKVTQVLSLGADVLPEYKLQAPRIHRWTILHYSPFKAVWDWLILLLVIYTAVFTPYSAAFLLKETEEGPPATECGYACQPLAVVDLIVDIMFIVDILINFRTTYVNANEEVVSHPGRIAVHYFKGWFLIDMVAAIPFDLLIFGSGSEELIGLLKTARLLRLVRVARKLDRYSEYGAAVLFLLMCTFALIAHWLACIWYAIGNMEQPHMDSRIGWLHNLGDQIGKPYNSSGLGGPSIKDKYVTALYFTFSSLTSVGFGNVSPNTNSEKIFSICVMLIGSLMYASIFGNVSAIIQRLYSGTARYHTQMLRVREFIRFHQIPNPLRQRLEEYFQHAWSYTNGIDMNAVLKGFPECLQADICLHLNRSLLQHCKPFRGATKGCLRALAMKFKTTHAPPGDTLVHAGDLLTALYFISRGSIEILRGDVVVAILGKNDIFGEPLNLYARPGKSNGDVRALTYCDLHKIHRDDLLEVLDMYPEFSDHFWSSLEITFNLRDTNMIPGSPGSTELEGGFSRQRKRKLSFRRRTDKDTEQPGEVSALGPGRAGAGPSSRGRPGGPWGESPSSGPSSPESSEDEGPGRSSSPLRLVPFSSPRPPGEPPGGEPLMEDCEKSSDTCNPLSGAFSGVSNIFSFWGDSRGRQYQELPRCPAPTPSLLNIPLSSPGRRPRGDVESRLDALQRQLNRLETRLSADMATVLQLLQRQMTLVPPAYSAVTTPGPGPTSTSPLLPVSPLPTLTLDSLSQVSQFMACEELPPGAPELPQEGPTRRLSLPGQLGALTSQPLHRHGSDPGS

SMILES	hERG current change (%, negative = inhibition) at 10uM [%]
Cc1ccc(NCc2nnc(SCc3ccc(C#N)cc3)n2Cc2ccco2)c(C)c1	-70.8
CCc1nnc(NC(=O)CN2CCOCC2)s1	15.5
COc1ccccc1N(C)S(=O)(=O)c1ccc(C(=O)OCC(=O)NCc2ccco2)cc1	-10.2
CCN(CC)c1ccc(N=Cc2c(C)[nH]c3ccccc23)cc1	4.04
O=C(O)CP(=O)(O)O	13.1
Cn1nccc1C(=O)Nc1cccc(C(F)(F)F)c1	10.4
CC(C)n1c(-c2cccs2)nc2ccccc21	0.616
O=C(NCCc1c[nH]c2ccccc12)c1cnc2sccn2c1=O	-10.9
CSc1ccccc1C(=O)C1CCCN(C(=O)c2cncs2)C1 (stereo not drawn)	4.56
c1ccc(Cn2c(CSc3nnnn3-c3ccccc3)nc3ccccc32)cc1	0.782
O=C(NCc1ccccn1)c1cc2c(ccc3ccccc32)oc1=O	20.1
Cc1cccc(Nc2nnc(C)c(=O)n2N)c1	-14.2
CC(C)CNC(=S)NC(=O)c1ccc([N+](=O)[O-])cc1	-14
COc1ccccc1CCNC(=O)CN1C(=O)c2ccccc2S1(=O)=O	2.11
COc1ccccc1CNC(=O)CCC(=O)n1ncc2cc(C)ccc21	0.647
Cc1cc(C)c(CN2CCN(Cc3ccc(C)o3)C(CCO)C2)c(-n2cccn2)c1 (stereo not drawn)	-76.4
O=C(CCN1C(=O)/C(=C/c2ccccc2F)SC1=S)NCCCN1CCOCC1	-14
CCCC(=O)N1N=C(c2ccccc2)CC1c1cn(C)c2ccccc12 (stereo not drawn)	-5.07
O=C(Cc1c(C(=O)O)[nH]c2ccccc12)NC1CCCC1	20.3
CNc1ccccc1	14.2
Cc1nn2c(=O)c3c4c(sc3nc2n1-c1ccccc1)COC(C)(C)C4	-21.4
COc1ccc(C(=O)c2ccc(N(C)C)cc2)c(OC)c1	-15.7
CC(=O)N(CC(=O)O)c1ccccc1C(=O)O	12

SMILES	hERG current change (%, negative = inhibition) at 10uM [%]
COc1ccc(CCn2c(-c3ccc(C(C)(C)C)cc3)n[nH]c2=S)cc1OC	7.14
COc1cc(-c2cc(C(=O)O)c3c(OC)c(OC)c(OC)cc3n2)ccc1O	15.4
COc1cc(CC2(CCc3ccncc3)C(=O)NC(=O)NC2=O)cc(OC)c1OC	18.4
Cc1ccc(-c2cc(C(=O)N3CCN(C(=O)c4ccco4)CC3)[nH]n2)c(C)c1	-39.7
CCn1c(Cc2ccccc2)nnc1SCC(=O)NC1CCCC1	31.8
Cc1cc(C)cc(N(C(=O)c2ccco2)C(C(=O)NC2CCCC2)c2ccncc2)c1 (stereo not drawn)	9.94
CCCCC(=O)Nc1ccc(C(=O)N2CCCC(C(=O)OCC)C2)cc1 (stereo not drawn)	7.66
Cc1ccc(C)c(NC(=O)C2C3CCCC2C3c2ccccc2)c1 (stereo not drawn)	6.75
CC1=CC(c2ccccc2)n2nc(N3C(=O)c4ccccc4C3=O)nc2N1 (stereo not drawn)	7.5
N#Cc1cc2ccccc2nc1SCC(=O)Nc1ccccc1N1CCOCC1	14.7
Cc1cc(/C=N/Nc2ccc([N+](=O)[O-])cn2)c(C)n1-c1ccccc1	9.19
Cc1ccc(N=Nc2c(N)n[nH]c2N)cc1	24.5
COc1ccccc1N1CCN(C(=O)c2cc(-c3ccc(F)cc3)[nH]c2C)CC1	-64.5
CCC(=O)Nc1ccc(NC(=O)CSc2nnnn2-c2cccnc2)cc1C	4.84
COc1cccc(-c2c(C#N)c(N)nc3c2c(=O)nc2sccn23)c1	17.3
CC1CCN(c2c(NCC3CCC(C(=O)NCc4ccccc4Cl)CC3)c(=O)c2=O)CC1 (stereo not drawn)	3.96
COc1ccc(C2c3ccc(O)cc3Oc3ncn(CCN4CCOCC4)c(=N)c32)cc1OC (stereo not drawn)	-11.8
N/C(=N\O)c1ccc(Cl)cc1Cl	2.46
CCC(CC)N1CCN(C(=O)c2cc(OC)c(OC)c(OC)c2)CC1	16.9
CN(Cc1ccon1)C(=O)c1ccc2nc(Cc3cccc(Cl)c3)oc2c1	-9.92
CN(C)c1ccc(C(C(=O)NC(C)(C)C)N(C(=O)c2csnn2)C2CC2)cc1 (stereo not drawn)	2.48
Cc1cccc(NS(=O)(=O)c2cc3c4c(c2)CC(=O)N4CCC3)c1C	11.2
CC1=NN(/C(=N\c2nnc(C)s2)Nc2ccccc2)[C@H](c2cccc3ccccc23)S1	0.419

SMILES	hERG current change (%, negative = inhibition) at 10uM [%]
CC(C)n1c(/C=C/[C@@H](O)C[C@@H](O)CC(=O)[O-])c(-c2ccc(F)cc2)c2ccccc21.[Na+]	20.6
CCCS(=O)(=O)NCCc1cc2ccc(OC)cc2[nH]c1=O	3.08
CCC(C)OC(=O)C1=C(C)O[C@]23OC(N)=C(C#N)[C@]12C(=O)c1ccccc13 (stereo partly drawn)	-8.98
Cc1nc([N+](=O)[O-])cn1CC(=O)NCCCO	11.1
CN(C)CCNC(=O)C12CC3(C)CC(C)(CC(C)(C3)C1)C2.Cl	1.17
COc1ccc(NC(=O)CSc2nnc(C(C)C)n2N)cc1	-6.23
Cc1ccc(-n2c3nc(=O)n(C)c(=O)c-3cc3ccccc32)cc1	15.7
C/C(=N\N1CCN(C)CC1)c1c(O)n(Cc2ccccc2)c(=O)[nH]c1=O	-27.9
Cl.NC(N)=NCCCc1cn(CC(=O)N2CCNCC2)nn1	0.759
Cc1ccc(S(=O)(=O)/N=C(\CN2CCCCC2)N2CCOCC2)cc1	-17.5
CCCCN(C(=O)c1ccc(S(=O)(=O)N2CCC(C)CC2)cc1)C1CCS(=O)(=O)C1 (stereo not drawn)	-53.2
Cc1ccc2c(c1)C1CN(C)CCC1N2C(=O)COc1ccc(N(C)C(=O)C(C)(C)C)cc1 (stereo not drawn)	-9.48
COc1ccc(C(=O)N2N=C(c3ccc(NS(C)(=O)=O)cc3)CC2c2cccs2)cc1 (stereo not drawn)	-10.6
Cl.O=C1CSC(c2ccccc2F)N1CCN1CCCCC1 (stereo not drawn)	-10.6
NC(=O)N1CCc2ccccc21	15.9
COc1ccccc1N(CC(=O)NCCSCc1ccc(Cl)cc1)S(C)(=O)=O	-0.283
O=C(NCc1cccnc1)c1cccs1	11.7
CCOC(=O)N1CCN(C(=O)COc2ccc(Br)cc2)CC1	-39.1
COc1ccc(NC(=O)CSc2nc3c(c(=O)n2-c2ccc(F)cc2)SCC3)cc1	-15.9
CCCCn1c(N)c(N(CC)C(=O)c2cc(OC)cc(OC)c2)c(=O)[nH]c1=O	7.26
Cn1c(=O)n(C)c2cc(S(=O)(=O)N3CCN(c4ccccc4)CC3)ccc21	-12.1
CCCCC1=NC2(CCCC2)C(=O)N1Cc1ccc(-c2ccccc2-c2nn[nH]n2)cc1	5.33
Cc1cccc(C(=O)Nc2ccccc2SCC2CSc3nc4ccccc4c(=O)n32)c1 (stereo not drawn)	-80.4

SMILES	hERG current change (%, negative = inhibition) at 10uM [%]
CC(=O)c1ccc(N2CCN(C(=O)c3ccco3)C(C)C2)c(F)c1 (stereo not drawn)	-49.9
Cc1ccc(C(=O)N2CCN(C)CC2)cc1S(=O)(=O)N1CCOCC1	11.5
CCCN(CC(=O)Nc1ccccc1C)C(=O)c1ccc(N2CCOCC2)c([N+](=O)[O-])c1	-70.3
CCOC(=O)N1CCC(N2CCCC(CO)(Cc3cccc(Cl)c3)C2)CC1 (stereo not drawn)	-49
S=C(NCCc1ccccc1)Nc1cccc2cnccc12	-0.828
Cc1ccc(OC(C)C(=O)N(C)Cc2ccccc2)c([N+](=O)[O-])n1 (stereo not drawn)	10.5
O=C1OCCC1Sc1nc2ccccc2c(=O)n1Cc1ccc(F)cc1 (stereo not drawn)	-75.5
Cc1c(C(=O)NC(=S)Nc2ccc3c4c(cccc24)CC3)cccc1[N+](=O)[O-]	8.63
CCOc1ccc(CCNC(=O)COC(=O)CNS(=O)(=O)c2ccc(NC(C)=O)cc2)cc1OCC	-10.6
C#CCN(C)[C@H](C)Cc1ccccc1.Cl	15.7
Cl.N=c1ccn(Cc2cccc(Cl)c2)cc1	2.03
CCC(=O)Nc1cc2c(cc1C(=O)c1ccccc1)OCCO2	-3.08
COc1cccc(C2=CC(c3ccc(N(C)C)cc3)n3ncnc3N2)c1 (stereo not drawn)	-1.72
O=C(COC(=O)c1ccc(OC(F)F)cc1)NCCC1=CCCCC1	-3.79
O=C(COC(=O)c1c2c(nc3ccccc13)CCCC2)c1ccc(Br)s1	-0.671
O=C(CCn1[nH]c(=O)c2ccccc2c1=O)N1CCOCC1	27.6
CSc1nncn1/N=C/c1cc(Cl)ccc1F	-3.41
O=C(Nc1c(F)c(F)c(F)c(F)c1F)C1CCCCC1	-3.18
CC(=O)OC1N=C(c2ccccc2)c2ccccc2NC1=O (stereo not drawn)	9.23
CC(C)c1onc(C(=O)NCc2cccs2)c1[N+](=O)[O-]	5.33
O=C(Nc1nccs1)C1CC(=O)N(c2ccccc2)C1 (stereo not drawn)	14.1
